Among all 43,000 compounds or so, about 200 (0.47%) were called active. About 12% were inconclusive and are not listed. Calls come from the whole dose curve; as a rule, active = well fitted cell-killing curve with a large enough effect; inconclusive = small, poorly fitted or top-dose-only effect, or effect the other way; inactive = flat fitted curve, though single readings scatter. Some of the results follow.
Assay: Cell viability qHTS assay in S16 Pmp22-F2sN cells; note: nearly all actives have a fitted effect of over 65% in size
Conditions: S16 Pmp22-F2sN Schwann cells (luciferase reporters placed in the Pmp22 gene) viability, CellTiter-Glo, 24 h; series mostly up to 57.5 µM; activity change, negative = cytotoxicity: at the top concentration
Procedure, shortened: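 Seed 500-1,000 S16 Pmp22-F2sN cells per well in phenol-red-free DMEM with 10% heat-inactivated FBS; pin-add 23 nL compound; incubate 24 h at 37C; add CellTiter-Glo, wait 15 min protected from light; read luminescence.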
For `CCOc1ccc(OCC(=O)NCCS(=O)(=O)N2CCN(c3ccc(F)cc3)CC2)cc1`, the “activity change, negative = cytotoxicity” value was inactive: -7.82%.
In the case of `Cc1ccc(-n2nc3ccc(NC(=O)c4oc5ccc(C)cc5c4C)cc3n2)cc1`, the “activity change, negative = cytotoxicity” value is reported as inactive: 7.59%.
With `CCOC(=O)C1CCCN(S(=O)(=O)c2ccc(N3CCCCS3(=O)=O)cc2)C1` (stereo not drawn) the “activity change, negative = cytotoxicity” value was inactive: -12.6%.
In the case of `Cc1cc(C(F)F)n2nc(C(=O)Nc3cc(Cl)ccc3C)nc2n1`, the “activity change, negative = cytotoxicity” value is reported as inactive: 0.454%.
With `O=C(Nc1ccccc1F)c1nc(SCc2ccc(F)cc2)ncc1Cl` the “activity change, negative = cytotoxicity” value was inactive: 11.2%.
With `CCCOc1ccccc1C(=O)N1CCCCC1CCN1CCOCC1` (stereo not drawn) the “activity change, negative = cytotoxicity” value was inactive: 15.4%.
With `CCN(C(=O)Cn1ncc2c(=O)oc3ccc(C)cc3c21)c1cc(OC)ccc1OC` the “activity change, negative = cytotoxicity” value was inactive: 0.207%.
For `Cc1cc(C)cc(-n2c(SCC(=O)NCc3ccco3)nc3c([nH]c4ccccc43)c2=O)c1`, the “activity change, negative = cytotoxicity” value was inactive: 5.15%.
In the case of `CC(C)NC(=O)CCn1c(SCc2c(F)cccc2Cl)nc2c(sc3ccccc32)c1=O`, the “activity change, negative = cytotoxicity” value is reported as inactive: -1.86%.
In the case of `CCCCn1c(SCC(=O)Nc2cccc(OC)c2)nc2c(sc3ccccc32)c1=O`, the “activity change, negative = cytotoxicity” value is reported as inactive: -3.14%.
In the case of `COc1ccccc1N1CCN(C(=O)C2CCN(S(=O)(=O)c3c(C)noc3/C=C/c3ccc(C)cc3)CC2)CC1`, the “activity change, negative = cytotoxicity” value is reported as inactive: 6.97%.
For `Cc1cccc(Cc2cnc(NC(=O)C3Cc4ccc(C)cc4C(=O)O3)s2)c1` (stereo not drawn), the “activity change, negative = cytotoxicity” value was inactive: -0.259%.
In the case of `CCOC(=O)c1cc(-c2ccc(C)cc2)n(CCC(=O)Nc2nc3c(C)cccc3s2)c1C`, the “activity change, negative = cytotoxicity” value is reported as inactive: -3.21%.
In the case of `Cc1cc(-n2c(SCC(=O)NCc3ccccc3)nc3ccsc3c2=O)ccc1Cl`, the “activity change, negative = cytotoxicity” value is reported as inactive: -3.82%.
For `COc1ccc(NC(=O)NCCc2c(C)nn(C)c2C)c(OC)c1`, the “activity change, negative = cytotoxicity” value was inactive: 11.8%.
With `O=C(c1ccc2c(c1)N(Cc1ccccc1)C(=O)c1ccccc1S2(=O)=O)N1CCCC1` the “activity change, negative = cytotoxicity” value was inactive: 4.43%.
With `CCC(Sc1nc2c(sc3ccccc32)c(=O)n1CCc1ccccc1)C(=O)N(CC)CC` (stereo not drawn) the “activity change, negative = cytotoxicity” value was inactive: 6.8%.
In the case of `CCCCCC(=O)N1c2ccccc2C(C)(c2ccccc2)CC1(C)C` (stereo not drawn), the “activity change, negative = cytotoxicity” value is reported as inactive: 6.08%.
In the case of `O=C(c1ccccc1Br)N(Cc1ccco1)C1CCS(=O)(=O)C1` (stereo not drawn), the “activity change, negative = cytotoxicity” value is reported as inactive: 6.69%.
For `COc1ccc(Cn2c(C(=O)O)c(CNCC(C)c3ccccc3)c3ccc(OC)cc32)cc1` (stereo not drawn), the “activity change, negative = cytotoxicity” value was inactive: -10.9%.
With `COc1ccc(NC(=O)CN2C(=O)C(c3ccc(C(C)(C)C)cc3)=NC2(C)C)cc1Cl` the “activity change, negative = cytotoxicity” value was inactive: -0.822%.
With `COc1cccc(CCNC(=O)Cn2c(-c3cccs3)cc3ccccc32)c1` the “activity change, negative = cytotoxicity” value was inactive: 6.87%.
For `CC(=O)c1ccc(N2CCN(c3ccc(NC(=O)c4cccs4)cc3C(=O)O)CC2)cc1`, the “activity change, negative = cytotoxicity” value was inactive: -2.36%.
With `Cc1ccc(NC(=O)CSc2nnc3nc(C)cc(C)n23)cc1` the “activity change, negative = cytotoxicity” value was inactive: -16.5%.
For `O=c1c2ccccc2n2c(-c3ccccc3O)nnc2n1Cc1ccc(F)cc1`, the “activity change, negative = cytotoxicity” value was inactive: -0.915%.
In the case of `Cc1cccc(Cn2ccn(Cc3ccc(Cl)cc3)c(=O)c2=O)c1`, the “activity change, negative = cytotoxicity” value is reported as inactive: 1.76%.
With `CCN(CC)C(=O)c1sc(NC(=O)c2nc3ncccn3n2)c(C(=O)OC)c1C` the “activity change, negative = cytotoxicity” value was inactive: -9.66%.
For `CCOC(=O)c1ccccc1NC(=O)NC(C)c1c(-n2cccc2)sc(C)c1C` (stereo not drawn), the “activity change, negative = cytotoxicity” value was inactive: -4.35%.
With `Cc1ccc(C)c(NC(=O)CN2C(=O)c3cccc4cccc2c34)c1` the “activity change, negative = cytotoxicity” value was inactive: 10.8%.
For `COc1ccc(C(CC(=O)O)NC(=O)c2cc3ccccc3oc2=O)cc1OC` (stereo not drawn), the “activity change, negative = cytotoxicity” value was inactive: 5.89%.
For `Cc1ccc(S(=O)(=O)c2cnc(SCC(=O)Nc3cccc(Cl)c3)nc2N)cc1C`, the “activity change, negative = cytotoxicity” value was inactive: 5.34%.
In the case of `O=C(Nc1cccc2cccnc12)c1ccccc1[N+](=O)[O-]`, the “activity change, negative = cytotoxicity” value is reported as inactive: -1.83%.
With `Oc1ccc(Nc2nc3ccccc3n3cnnc23)cc1` the “activity change, negative = cytotoxicity” value was inactive: -2.42%.
In the case of `CCOCCCNC(=O)CN1C(=O)COc2ccc(S(=O)(=O)N3CCCCCC3)cc21`, the “activity change, negative = cytotoxicity” value is reported as inactive: -0.156%.
With `CCCCc1cc(=O)oc2cc(C)c3c(C(C)(C)C)coc3c12` the “activity change, negative = cytotoxicity” value was inactive: -16.4%.
For `COc1ccc(C)cc1NC(=O)N1CCN(S(=O)(=O)c2ccc3c(ccn3C)c2)CC1`, the “activity change, negative = cytotoxicity” value was inactive: -3.97%.
For `COc1ccc(NC(=O)c2nc(S(C)(=O)=O)ncc2N(Cc2ccc(C)cc2)Cc2ccco2)cc1Cl`, the “activity change, negative = cytotoxicity” value was inactive: 0.64%.
For `COc1cccc(CNC(=O)c2cc(-c3ccc(Cl)s3)nc3ccccc23)c1`, the “activity change, negative = cytotoxicity” value was inactive: 1.29%.
In the case of `Cc1cccc(CSc2nc3c(sc4ccccc43)c(=O)n2CCC(=O)NC(C)C)c1`, the “activity change, negative = cytotoxicity” value is reported as inactive: -9.66%.
In the case of `Cc1cccc(NC(=O)CSc2nc3ccc(NC(=O)COc4ccccc4C)cc3s2)c1`, the “activity change, negative = cytotoxicity” value is reported as inactive: 26.1%.
For `CCCNC(=O)CCC(=O)N1Cc2cccc(OC)c2Oc2ncccc21`, the “activity change, negative = cytotoxicity” value was inactive: -0.925%.
With `CC1CN(C(=O)NCc2ccccc2)c2cc(Cl)ccc2O1` (stereo not drawn) the “activity change, negative = cytotoxicity” value was inactive: -7.33%.
With `O=C(NCc1ccc(Cl)cc1)C1CCN(c2nn3cc(-c4ccc(F)cc4)nc3s2)CC1` the “activity change, negative = cytotoxicity” value was inactive: 3.38%.
For `Cc1c(C(=O)OCCOc2ccccc2)[nH]c2c1C(=O)CC(c1ccc(C(C)(C)C)cc1)C2` (stereo not drawn), the “activity change, negative = cytotoxicity” value was inactive: 0.518%.
For `CCn1c2c(c(=O)n3ncc(C(=O)Nc4cc(Cl)ccc4OC)c13)CN(Cc1ccc(OC)cc1)CC2`, the “activity change, negative = cytotoxicity” value was inactive: 10.4%.
For `COc1ccccc1N1CCN(C(=O)c2cc(-c3ccc(C)c(F)c3)on2)CC1`, the “activity change, negative = cytotoxicity” value was inactive: 4.83%.
For `COCCCNC(=O)CN1C(=O)c2cccnc2Sc2ccccc21`, the “activity change, negative = cytotoxicity” value was inactive: 1.17%.
In the case of `O=C(Nc1cccc(C(F)(F)F)c1)Nc1nnc(N2CCCCCC2)s1`, the “activity change, negative = cytotoxicity” value is reported as inactive: -9.99%.
% is set by controls: 0 for no effect and ±100 for the full control effect.
